# Source: the supplement of paper PMC11417369
# ± gives the standard deviation of the averaged measurements. Some of the results follow.
# Test system: PfAP2-LT AP2 domain (GST-tagged)
# Assay: gcPBM binding intensity (ln(normalized median fluorescence intensity)); higher = stronger DNA binding
# How it was run: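 Binding intensity is defined as the maximum Masliner-normalised natural-log median intensity across replicate spots for either probe orientation. It was measured on an Agilent 4 × 180k array of primer-extended double-stranded 36-bp intergenic genomic probes and negative controls, to which GST-tagged P. falciparum DNA-binding domains made in E. coli were applied for 1 h in 1× PBS with 1% milk, 0.2 mg/ml BSA, 0.5% salmon testes DNA and 0.03% Triton X-100. Detection was by Alexa488 anti-GST antibody and scanning at 488 nm.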
row,Sequence,gcPBM binding intensity (ln)
1,AAAAAAAAAAAAGATACACACAAAAATGAATATATA [CACACA_site2099],9.05 ± 0.61
2,ACGGGTCAATATATGCGTACTTATTTAAATAATTAA [XGTACX_site1518],8.68 ± 0.45
3,ATTATGTATATAAATTAACACACATATGTGGTTAAT [CACACA_site9028],8.88 ± 0.3
4,ATAAATGGAAACAAAAGTACTAAAAAAAAAAAATAA [XGTACX_site1510],8.67 ± 0.59
5,AATAATATAGATTGTACACACAAAATGGGAAAAAAA [CACACA_site1886],9.18 ± 0.54
6,TATATATGTATGTATTGTACAATTAAAAATATGTAT [XGTACX_site3990],8.65 ± 0.4
7,ATCAAGCACCAACACACACACACACCCCCACCCACA [CACACA_site370],10.6 ± 0.11
8,TAAATAAATAAAAAAACACACATATATATATATATA [CACACA_site4029],9.6 ± 0.44
9,TTTTATCACATTATTGCACACACATAAAGAAAAAAA [CACACA_site8922],9.04 ± 0.3
10,ATATATATATATAACTGTACTTATATATACATTTTA [XGTACX_site8605],9.11 ± 0.16
11,ATATATATATATATATGTACATATATATATAATTTT [XGTACX_site4146],9.34 ± 0.54
12,TTATATTTATTTATTTGTACATATTTTTTTTTATAT [XGTACX_site1669],8.76 ± 0.57
13,TTTCTTTTTAAATATATACACACCGTGGGTACATAT [CACACA_site9102],8.92 ± 0.52
14,ATATAATAAAATGACACACGCATATATATATATATA [CACACA_site2789],9.955 ± 0.021
15,AGGCTCAAATCTAGGTGTACCATTATCGTTGTATCT [XGTACX_site4730],8.99 ± 0.37
16,ATTTTTTCTTATAATGCATGTAGAAAACCGTACAGC [TGCATGCA_site57],8.57 ± 0.4
17,CCTAAATTATATTATGCACACTTAAAAATATATTTA [CACACA_site5861],8.54 ± 0.4
18,TATGTGTTTATTTGGTGTACATACTAATAAATATAC [XGTACX_site1682],8.74 ± 0.33
19,ATATATATATATATATGTACTTATTTATCGTATTAT [XGTACX_site3520],9.84 ± 0.31
20,ATTAATATTCTATATGCATGTGAACCATGGTATATA [TGCATGCA_site430],8.77 ± 0.42
21,TCATATCTTTTGAGCACACATATATATATATAAAGG [CACACA_site3338],8.9 ± 0.34
22,ATAAAATATTAATTTTAAATTAATCAATATATATAA [GTGCAC_negctrl_site474],8.21 ± 0.52

row,Sequence,gcPBM binding intensity (ln)
1,TTCTCATTCAAATTAGTGCATTTTTGTTATTACATT,8.8 ± 0.49
2,AAACAGAAGACATATACACACATACAAAAAAGTGCA [CACACA_site4699],9.38 ± 0.49
3,TGTGTATATATATAATGTACATAAAGATTTATATAT [XGTACX_site5835],8.78 ± 0.49
4,TTTTAAGAATAAAATTGTACACATACATGTGTTCGC [XGTACX_site438],8.99 ± 0.49
5,TTATTTATATATTCATGTACATAACATTTCATTCGA [XGTACX_site4388],8.64 ± 0.49
6,ATATAAATTTTTTAGAGTACTAAAATAAAATAATAT [XGTACX_site2118],8.45 ± 0.47
7,TAAAAAATGAAAAAGCGTACATGTTTTCTTATATTA [XGTACX_site1722],8.53 ± 0.44
8,TTTTCTAAAATGAATTGTACTTGATTATTTAAAAAA [XGTACX_site6097],8.05 ± 0.41
9,ATACTAAAAAGTATCTGTACTTATTTTAAAAATAAA [XGTACX_site4116],8.19 ± 0.53
10,TATTTACTTATATGCACACATAAATGTGAATTATGG [CACACA_site3777],9 ± 0.34
11,TAAATAATTAAAATATGTACTGAAATGTAATTATTT [XGTACX_site5894],8.6 ± 0.45
12,TGTATCATAAAAATAACACACGTATTTTTTTTTATT [CACACA_site1050],8.68 ± 0.45
13,AATAATATATATATATATATAATAAAATATAAATAG [CACACA_negctrl_site1515],8.95 ± 0.38
14,CCAACATGCCCACGCACACACAAAAAAAGCATGCAT [CACACA_site4217],9.51 ± 0.4
15,TTATTTATTTATAATAGTACAATTTAATGATCTTCT [XGTACX_site4831],8.44 ± 0.58
16,TGTTTTATACTAAATGAACACACACCCATATATATA [CACACA_site7912],9.13 ± 0.13
17,CAATATATTTGATTTACACACTTACAATGTATATAA [CACACA_site2994],8.73 ± 0.37
18,AAAAATAACGTAAATTGTACATGTAAAATTTTCTAT [XGTACX_site7158],8.98 ± 0.3
19,ATATGAAATAATAATAGTACATAAAATAATTTTACT [XGTACX_site6964],8.69 ± 0.41
20,ATAGAAATATATATATGTACATATAGATAAATCTAT [XGTACX_site7833],8.9 ± 0.34
21,ATAAATACAGATAACACACACATATATATATATATA [CACACA_site5431],10.225 ± 0.0071
22,ACATTTTTTTTTTTTTTTCTTTTTCTTTTTCTTTTT [CACACA_negctrl_site1295],8.71 ± 0.66
